According to US20260207767A1 (ANAVEON, published 2026):

T1: His-tagged recombinant CD25 (UniProt P01589 22-213, limits assumed)
T1 construct: also called IL-2R alpha chain
T1 sequence (looked up): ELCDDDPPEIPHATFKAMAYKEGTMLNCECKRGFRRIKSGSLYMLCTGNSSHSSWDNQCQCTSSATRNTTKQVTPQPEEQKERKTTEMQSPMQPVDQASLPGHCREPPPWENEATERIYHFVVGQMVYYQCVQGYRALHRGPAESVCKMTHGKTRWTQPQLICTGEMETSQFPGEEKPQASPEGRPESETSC

T2: trimeric IL-2 receptor (CD25/CD122/CD132) on HEK-Blue IL-2 reporter cells (UniProt P01589 22-272; P14784 27-551; P31785 23-369, limits assumed)
T2 sequence (looked up) 1: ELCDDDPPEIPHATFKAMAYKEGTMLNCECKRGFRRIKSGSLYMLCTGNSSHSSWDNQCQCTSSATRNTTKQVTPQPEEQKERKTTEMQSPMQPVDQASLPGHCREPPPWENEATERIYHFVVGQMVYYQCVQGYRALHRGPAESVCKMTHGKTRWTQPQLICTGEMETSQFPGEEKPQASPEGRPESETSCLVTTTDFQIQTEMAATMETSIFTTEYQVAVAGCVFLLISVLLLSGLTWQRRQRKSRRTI
T2 sequence (looked up) 2: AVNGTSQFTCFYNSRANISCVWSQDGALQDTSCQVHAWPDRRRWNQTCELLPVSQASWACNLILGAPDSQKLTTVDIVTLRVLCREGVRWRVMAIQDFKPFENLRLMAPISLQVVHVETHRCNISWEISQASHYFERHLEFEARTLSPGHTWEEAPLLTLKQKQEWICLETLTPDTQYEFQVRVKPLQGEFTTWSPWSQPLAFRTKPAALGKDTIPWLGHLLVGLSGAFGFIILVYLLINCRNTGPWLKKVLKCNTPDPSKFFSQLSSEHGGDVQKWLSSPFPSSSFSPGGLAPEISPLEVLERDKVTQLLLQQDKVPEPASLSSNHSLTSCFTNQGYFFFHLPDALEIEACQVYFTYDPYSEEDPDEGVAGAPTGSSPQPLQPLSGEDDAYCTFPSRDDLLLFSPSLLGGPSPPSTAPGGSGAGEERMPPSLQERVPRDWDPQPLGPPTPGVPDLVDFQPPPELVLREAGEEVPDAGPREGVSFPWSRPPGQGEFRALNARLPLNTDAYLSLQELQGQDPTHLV
T2 sequence (looked up) 3: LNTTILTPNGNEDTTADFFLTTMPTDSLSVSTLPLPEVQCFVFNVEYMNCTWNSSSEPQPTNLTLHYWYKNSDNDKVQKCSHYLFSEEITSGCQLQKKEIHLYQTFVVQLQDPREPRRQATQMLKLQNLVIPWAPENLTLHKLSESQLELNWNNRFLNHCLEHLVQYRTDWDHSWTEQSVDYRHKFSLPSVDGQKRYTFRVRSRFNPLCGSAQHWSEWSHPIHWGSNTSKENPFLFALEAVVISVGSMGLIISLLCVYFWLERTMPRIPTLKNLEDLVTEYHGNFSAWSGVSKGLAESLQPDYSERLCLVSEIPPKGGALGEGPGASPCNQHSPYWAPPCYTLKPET

T3: high affinity trimeric IL-2R on CD4+CD25+FoxP3+ Treg cells of murine splenocytes (mouse, UniProt P01590 22-268; P16297 27-539; P34902 23-369)
T3 sequence (looked up) 1: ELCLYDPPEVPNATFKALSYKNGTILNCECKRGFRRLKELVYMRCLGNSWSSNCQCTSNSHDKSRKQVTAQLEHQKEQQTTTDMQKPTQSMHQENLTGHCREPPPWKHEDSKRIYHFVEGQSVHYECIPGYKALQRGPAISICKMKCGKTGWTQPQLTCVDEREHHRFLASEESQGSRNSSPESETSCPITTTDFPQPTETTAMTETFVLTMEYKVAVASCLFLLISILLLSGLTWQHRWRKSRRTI
T3 sequence (looked up) 2: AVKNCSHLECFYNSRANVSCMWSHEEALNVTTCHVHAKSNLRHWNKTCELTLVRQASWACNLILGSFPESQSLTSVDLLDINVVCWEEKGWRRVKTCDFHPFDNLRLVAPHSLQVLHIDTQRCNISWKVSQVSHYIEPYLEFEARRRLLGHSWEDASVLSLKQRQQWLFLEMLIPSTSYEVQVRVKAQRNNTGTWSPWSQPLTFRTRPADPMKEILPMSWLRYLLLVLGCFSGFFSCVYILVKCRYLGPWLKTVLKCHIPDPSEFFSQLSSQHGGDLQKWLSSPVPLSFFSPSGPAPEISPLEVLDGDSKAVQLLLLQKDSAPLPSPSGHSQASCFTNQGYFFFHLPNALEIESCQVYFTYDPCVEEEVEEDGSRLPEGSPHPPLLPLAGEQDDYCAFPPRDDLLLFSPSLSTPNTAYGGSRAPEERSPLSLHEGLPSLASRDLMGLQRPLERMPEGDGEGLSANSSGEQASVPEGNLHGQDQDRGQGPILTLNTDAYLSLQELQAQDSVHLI
T3 sequence (looked up) 3: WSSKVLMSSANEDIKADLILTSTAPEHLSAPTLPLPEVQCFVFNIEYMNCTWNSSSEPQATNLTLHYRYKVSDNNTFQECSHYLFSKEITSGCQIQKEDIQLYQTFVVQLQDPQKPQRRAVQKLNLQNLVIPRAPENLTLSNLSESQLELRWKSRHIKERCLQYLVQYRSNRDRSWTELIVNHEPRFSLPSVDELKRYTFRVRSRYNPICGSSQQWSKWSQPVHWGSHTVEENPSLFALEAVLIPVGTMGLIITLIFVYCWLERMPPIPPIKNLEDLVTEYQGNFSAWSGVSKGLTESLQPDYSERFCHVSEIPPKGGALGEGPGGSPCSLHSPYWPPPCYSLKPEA


Assays:
[1] = biological target: T1, His-tagged recombinant CD25; test: SPR, CD25 captured
[2] = biological target: anti-IL-2 antibody clone 5344; test: ELISA on clone 5344
[3] = biological target: T2, trimeric IL-2 receptor …; test: cell-based or functional assay
[4] = biological target: IL-2R on NK cells and CD8+ T cells of murine splenocytes (C57BL/6) (mouse); test: cell-based or functional assay
[5] = biological target: T3, high affinity trimeric IL-2R on …; test: cell-based or functional assay

Binder | binding result [1] | EC50 [2] | EC50, HEK Blue IL-2 reporter assay (SEAP) [3] | EC50 CD8 cells (nM), pSTAT5 [4] | EC50 NK cells (nM), pSTAT5 [4] | EC50 Treg cells (nM), pSTAT5 [5] | Kd [1]
GYG794 (other, Antibody B IgG with IL-2CP in CDR-L1) heavy: QVQLVESGGGVVQPGRSLRLSCAASGYTFSSYLIEWVRQAPGKGLEWVAVINPGSGGTNYADSVKGRFTISADKSKNTAYLQMNSLRAEDTAVYYCARWRGDGYYAYFDVWGQGTTVTVSSASTKGPSVFPLAPSSKSTSGGTAALGCLVKDYFPEPVTVSWNSGALTSGVHTFPAVLQSSGLYSLSSVVTVPSSSLGTQTYICNVNHKPSNTKVDKRV[not shown - human IgG1 Fc with changes] light: EIVLTQSPATLSVSPGERATLSCRASQSVSYGGNFHLRPRDLISNINVIVLELKGSETTFMCEYADETATIVEFLNRWITFSQSIISTLTPTSSSTKKTQLQLEHLLLDLQMILNGINNYKNPKLTRMLTFKFYMPKKATELKHLQCLEEELKPLEEVLNLAQSKGGGDSYMNWYQQKPGQAPRLLIYAASNLASGIPARFSGSGSGTEFTLTISSLQSEDAAVYYCQQSNEDPYTFGGGTKVEIKRTVAAPSVFIFPPSDEQLKSGTASVVCLLNNFYPREAKVQWKVDNALQSGNSQESVTEQDSKDSTYSLSSTLTLSKADYEKHKVYACEVTHQGLSSPVTKSFNRGEC | no binding (tested: 500 nM) | 0.2 nM | 0.0039 nM | 18.6 nM | 1.5 nM | 4.8 nM | –
BFC885 (other, Antibody B IgG with IL-2CP in CDR-L1, 13/14 AA linkers) heavy: QVQLVESGGGVVQPGRSLRLSCAASGYTFSSYLIEWVRQAPGKGLEWVAVINPGSGGTNYADSVKGRFTISADKSKNTAYLQMNSLRAEDTAVYYCARWRGDGYYAYFDVWGQGTTVTVSSASTKGPSVFPLAPSSKSTSGGTAALGCLVKDYFPEPVTVSWNSGALTSGVHTFPAVLQSSGLYSLSSVVTVPSSSLGTQTYICNVNHKPSNTKVDKRV[not shown - human IgG1 Fc with changes] light: EIVLTQSPATLSVSPGERATLSCRASQSVSYGGGGSGGGGSGGGNFHLRPRDLISNINVIVLELKGSETTFMCEYADETATIVEFLNRWITFSQSIISTLTPTSSSTKKTQLQLEHLLLDLQMILNGINNYKNPKLTRMLTFKFYMPKKATELKHLQCLEEELKPLEEVLNLAQSKGGGGSGGGGSGGGGDSYMNWYQQKPGQAPRLLIYAASNLASGIPARFSGSGSGTEFTLTISSLQSEDAAVYYCQQSNEDPYTFGGGTKVEIKRTVAAPSVFIFPPSDEQLKSGTASVVCLLNNFYPREAKVQWKVDNALQSGNSQESVTEQDSKDSTYSLSSTLTLSKADYEKHKVYACEVTHQGLSSPVTKSFNRGEC | – | 0.25 nM | 0.00509 nM | 26.4 nM | 2 nM | 0.9 nM | 54.1 nM

The remaining lines, values ahead:

binding result [1] | EC50 [2] | EC50, HEK Blue IL-2 reporter assay (SEAP) [3] | EC50 CD8 cells (nM), pSTAT5 [4] | EC50 NK cells (nM), pSTAT5 [4] | EC50 Treg cells (nM), pSTAT5 [5] | Kd [1] | Binder
no binding (tested: 500 nM) | 0.11 nM | 0.00345 nM | 6.8 nM | 0.9 nM | 6.6 nM | – | DRO069 (other, Antibody B IgG with IL-2CP in CDR-L1; also called DRQ069) heavy: QVQLVESGGGVVQPGRSLRLSCAASGYTFSSYLIEWVRQAPGKGLEWVAVINPGSGGTNYADSVKGRFTISADKSKNTAYLQMNSLRAEDTAVYYCARWRGDGYYAYFDVWGQGTTVTVSSASTKGPSVFPLAPSSKSTSGGTAALGCLVKDYFPEPVTVSWNSGALTSGVHTFPAVLQSSGLYSLSSVVTVPSSSLGTQTYICNVNHKPSNTKVDKRV[not shown - human IgG1 Fc with changes] light: EIVLTQSPATLSVSPGERATLSCRASQSVSYGGGNFHLRPRDLISNINVIVLELKGSETTFMCEYADETATIVEFLNRWITFSQSIISTLTPTSSSTKKTQLQLEHLLLDLQMILNGINNYKNPKLTRMLTFKFYMPKKATELKHLQCLEEELKPLEEVLNLAQSKGGGGDSYMNWYQQKPGQAPRLLIYAASNLASGIPARFSGSGSGTEFTLTISSLQSEDAAVYYCQQSNEDPYTFGGGTKVEIKRTVAAPSVFIFPPSDEQLKSGTASVVCLLNNFYPREAKVQWKVDNALQSGNSQESVTEQDSKDSTYSLSSTLTLSKADYEKHKVYACEVTHQGLSSPVTKSFNRGEC
no binding (tested: 500 nM) | 0.13 nM | 0.00342 nM | 6.9 nM | 0.9 nM | 3.7 nM | – | ECV200 (other, Antibody B IgG with IL-2CP in CDR-L1) heavy: QVQLVESGGGVVQPGRSLRLSCAASGYTFSSYLIEWVRQAPGKGLEWVAVINPGSGGTNYADSVKGRFTISADKSKNTAYLQMNSLRAEDTAVYYCARWRGDGYYAYFDVWGQGTTVTVSSASTKGPSVFPLAPSSKSTSGGTAALGCLVKDYFPEPVTVSWNSGALTSGVHTFPAVLQSSGLYSLSSVVTVPSSSLGTQTYICNVNHKPSNTKVDKRV[not shown - human IgG1 Fc with changes] light: EIVLTQSPATLSVSPGERATLSCRASQSVSYGGGGSGNFHLRPRDLISNINVIVLELKGSETTFMCEYADETATIVEFLNRWITFSQSIISTLTPTSSSTKKTQLQLEHLLLDLQMILNGINNYKNPKLTRMLTFKFYMPKKATELKHLQCLEEELKPLEEVLNLAQSKGGGGSGGDSYMNWYQQKPGQAPRLLIYAASNLASGIPARFSGSGSGTEFTLTISSLQSEDAAVYYCQQSNEDPYTFGGGTKVEIKRTVAAPSVFIFPPSDEQLKSGTASVVCLLNNFYPREAKVQWKVDNALQSGNSQESVTEQDSKDSTYSLSSTLTLSKADYEKHKVYACEVTHQGLSSPVTKSFNRGEC
